Assay results from PMC4336329 (PLoS ONE, 2015).
The whole screen tested about 310,000 compounds, of which about 2,200 (0.71%) showed an effect of 50% or more. The effect is printed as a negative number. Some of the results follow.

molecular target: human ether-à-go-go-related gene (hERG) potassium channel (human, UniProt Q12809); experiment: primary screen, population patch clamp on CHO cells stably expressing hERG
Sequence (Q12809 whole entry, looked up): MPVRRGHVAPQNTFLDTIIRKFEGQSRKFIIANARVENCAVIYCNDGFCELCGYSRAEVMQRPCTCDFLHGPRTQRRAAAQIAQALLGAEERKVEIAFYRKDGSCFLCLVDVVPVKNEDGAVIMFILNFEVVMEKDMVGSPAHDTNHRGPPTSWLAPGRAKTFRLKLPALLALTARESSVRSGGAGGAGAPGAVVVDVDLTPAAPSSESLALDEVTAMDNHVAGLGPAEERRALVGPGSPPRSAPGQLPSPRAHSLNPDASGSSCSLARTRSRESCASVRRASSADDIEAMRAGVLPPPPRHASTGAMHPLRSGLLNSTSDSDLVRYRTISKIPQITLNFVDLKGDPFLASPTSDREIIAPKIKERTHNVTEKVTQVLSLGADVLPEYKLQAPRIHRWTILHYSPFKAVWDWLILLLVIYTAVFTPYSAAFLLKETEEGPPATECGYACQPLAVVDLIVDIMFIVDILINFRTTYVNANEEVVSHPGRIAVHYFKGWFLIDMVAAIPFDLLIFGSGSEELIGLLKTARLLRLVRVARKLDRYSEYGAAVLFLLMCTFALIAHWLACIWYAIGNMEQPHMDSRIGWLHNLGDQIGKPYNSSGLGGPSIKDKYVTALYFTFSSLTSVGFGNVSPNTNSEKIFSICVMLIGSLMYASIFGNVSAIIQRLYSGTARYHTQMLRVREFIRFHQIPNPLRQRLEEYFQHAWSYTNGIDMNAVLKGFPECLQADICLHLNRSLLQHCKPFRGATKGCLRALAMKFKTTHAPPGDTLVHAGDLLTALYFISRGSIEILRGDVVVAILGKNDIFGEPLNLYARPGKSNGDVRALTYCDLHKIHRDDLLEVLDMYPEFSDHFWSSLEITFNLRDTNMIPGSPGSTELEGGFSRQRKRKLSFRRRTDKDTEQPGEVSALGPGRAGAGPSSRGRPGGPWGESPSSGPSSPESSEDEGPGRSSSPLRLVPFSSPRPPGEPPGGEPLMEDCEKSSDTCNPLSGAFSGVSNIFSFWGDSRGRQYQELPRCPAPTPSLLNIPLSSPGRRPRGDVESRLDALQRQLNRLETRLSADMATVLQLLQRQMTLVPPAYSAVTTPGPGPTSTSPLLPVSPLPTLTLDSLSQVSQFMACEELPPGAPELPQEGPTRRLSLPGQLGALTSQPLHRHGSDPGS

Row | Compound | hERG current change (%, negative = inhibition) at 1uM [%]
1 | CCn1cc(C(=O)N[C@@H](CCSC)C(=O)NCCCN2CCOCC2)c(=O)c2cc3c(cc21)OCO3 | 39.4
2 | C=CCn1c(SCC(N)=O)nnc1-c1cc2c(s1)CCC(CC)C2 (stereo not drawn) | 11.7
3 | O=C(N/N=C/c1ccc2nccnc2c1)c1ccc(Br)cc1 | 13.6
4 | CCCC(=O)NCc1cc(-c2nn(C)c(=O)c3ccccc23)ccc1C | 11.7
5 | CCOC(=O)c1sc2nc(CC(=O)OC)nc(NCc3ccc(Cl)cc3)c2c1C | -0.526
6 | Cc1ccc(OCc2ccc(C(=O)NCC3CCCO3)cc2)cc1C (stereo not drawn) | 0.0765
7 | CC(NC(=O)COc1ccc(Oc2ccccc2)cc1)C(=O)O (stereo not drawn) | -2.72
8 | Cc1ccccc1CS(=O)(=O)c1nnc([C@H](CC(C)C)NC(=O)OC(C)(C)C)o1 | -5.66
9 | O=c1[nH]c(CSc2nnnn2-c2ccccc2)nc2ccccc12 | 5.15
10 | Cc1noc(C)c1COc1ccc(C(=O)N2CC(C)CC(C)C2)cc1 (stereo not drawn) | 11.6
11 | Cc1ccccc1Nc1nnc(SCC(=O)NC2CCCc3ccccc32)s1 (stereo not drawn) | 4.33
12 | COCC(C)NCC(=O)NC(C)CCc1ccccc1.O=C(O)C(=O)O (stereo not drawn) | 8.23
13 | CCOC(=O)c1c(S(=O)(=O)NCC(=O)Nc2ccccc2F)c(C)n(C)c1C | 21.5
14 | CSc1ccc(CN2CCCC(CNC(=O)c3ccc(F)cc3)C2)cc1 (stereo not drawn) | -59
15 | CCN(CCO)c1nc(N2CCCCC2)c2cnn(C)c2n1 | 13.6
16 | N/C(=N\OC(=O)N1CCOCC1)c1ccccc1 | 3.49
17 | COC(=O)C(CCSC)NC(=O)C12CC3CC(CC(C3)C1)C2 (stereo not drawn) | 11.4
18 | CC(=O)Nc1cc(C(=O)N2CCC3(CC2)OCCO3)ccc1Sc1ccc(F)cc1 | 2.03
19 | COc1ccccc1NS(=O)(=O)c1ccc(C)c(NS(=O)(=O)c2cc(C(=O)O)cc(C)c2C)c1 | 9.86
20 | CCOC(=O)Nc1ccc2c(c1)nc(CN1CCCCC1)n2C | 1.41
21 | Cc1onc(-c2c(F)cccc2Cl)c1C(=O)N1CCCc2ccccc21 | 0.137
22 | COc1ccc(NC(=O)c2cccnc2)cc1 | 11.2
23 | CC(=O)N1CCc2cc(S(=O)(=O)NC(CC(C)C)C(=O)Nc3cc(C(=O)O)ccc3C)ccc21 (stereo not drawn) | 3.73

Row | Compound | hERG current change (%, negative = inhibition) at 1uM [%]
24 | O=C(OCC(=O)N1CCN(C(=O)c2ccco2)CC1)c1cc(-c2ccc(F)cc2)nc2ccccc12 | -13.3
25 | CCn1c(SCC(=O)Nc2nc(C)cs2)nnc1C(C)NC(=O)c1ccccc1 (stereo not drawn) | 16.2
26 | Cc1ccc2c(CN3CCOCC3)cc(=O)oc2c1C | 0.103
27 | O=C(/C=C/c1c(F)cccc1Cl)NCc1ccc2c(c1)OCO2 | 6.82
28 | Cc1ccc2nc(CCc3ccc(N)cc3)[nH]c2c1.Cl | 13.3
29 | COCC(C)NC(=O)CSc1nc(-c2ccccc2)c(-c2ccccc2)o1 (stereo not drawn) | 7.14
30 | O=C(Nc1cccnc1)c1ccccc1O | -0.67
31 | COC(=O)C1=C(NC(=O)c2ccc(C)cc2)CCS1 | -5.73
32 | CC(C)c1ccc(N2C(=O)CC(=O)NC2=O)cc1 | 16.3
33 | CCn1c(C)c(C2=CCN(S(=O)(=O)c3ccc(C)cc3)CC2)c2ccccc21 | 6.28
34 | Cc1cc(C(=O)COC(=O)Cn2c(C(F)(F)F)nc3ccccc32)c(C)n1Cc1ccco1 | 13.1
35 | N#Cc1ccccc1NC(=O)CSc1ccc([N+](=O)[O-])cn1 | 12.2
36 | CC(C(=O)OCC(=O)N(C)C1(C#N)CCCCC1)N1C(=O)c2ccccc2C1=O (stereo not drawn) | 1.62
37 | CN(CC(CC(=O)O)c1ccccc1)S(=O)(=O)c1ccc(Br)cc1 (stereo not drawn) | 9.66
38 | CCC1(c2ccccc2)NC(=O)N(CC(=O)Nc2cc(S(=O)(=O)N3CCCCC3)ccc2N(C)C)C1=O (stereo not drawn) | -0.0238
39 | COc1ccc(C(C)=O)cc1CSC(=N)N.Cl | 5.8
40 | COc1ccc(CC(=O)Nc2c(C(N)=O)oc3ccccc23)cc1 | 6.82
41 | CC1=CC(C)(C)Nc2ccc(OC(=O)c3cccnc3)cc21 | 12.8
42 | COc1ccc2cc(C(=O)Nc3ccc(O)cc3)sc(=O)c2c1OC | 3.32
43 | O=C(COc1ncnc2c(Cl)cc(Cl)cc12)NC1CCCCCC1 | 14.1
44 | COc1ccc(CCNS(=O)(=O)c2c(C)nc3scc(C)n3c2=O)cc1OC | 11.9
45 | O=S(=O)(Nc1ncccn1)c1ccc(Cl)cc1 | 13.2
46 | CC1=CC=CN2C1=NC(=O)CC2(C)C(=O)N(CC(=O)NC1CCCC1)c1cc(C)cc(C)c1 (stereo not drawn) | 8.74

Row | Compound | hERG current change (%, negative = inhibition) at 1uM [%]
47 | Cc1ccnc(NC(=O)COc2ccc3c(c2)CCC3)c1 | -4.13
48 | C=CCSc1nc(N)c(C(=O)Nc2ccccc2)cc1C#N | 10.1
49 | O=C(NCc1ccccn1)NC12CC3CC(CC(C3)C1)C2 | 11.9
50 | COc1ccc(/C(C)=N/N2CCCCC2)c(O)c1 | 11.8
51 | Cc1c2n(c3ccccc13)CC/C2=N\O | -3.66
52 | COC(=O)C(O)(CC(=O)Nc1cccc(SC)c1)C(F)(F)F (stereo not drawn) | 20.2
53 | Nc1ccc(N2C(=O)c3ccccc3C2=O)c(Cl)c1 | 18
54 | O=C(NNC(=O)C1CCCN(c2ncccn2)C1)c1ccncc1 (stereo not drawn) | 4.84
55 | CNC(=O)Cc1csc2ccc(C)cc12 | 7.66
56 | CCc1ccc(CCC(=O)Nc2ccc(C)c(C)c2)o1 | 10.2
57 | Oc1ccc(N=Nc2nccs2)c(O)c1 | 18.5
58 | Nc1cccc(-c2nc3cc(S(=O)(=O)c4ccc5oc(-c6cccc(N)c6)nc5c4)ccc3o2)c1 | 7.82
59 | O=C(CCn1c(=O)sc2ccccc21)NCc1cccs1 | 7.82
60 | COc1cccc(N2CCN(C(=O)c3ccc(Cl)c(NC4=NC5CS(=O)(=O)CC5S4)c3)CC2)c1 (stereo not drawn) | 13.1
61 | O=C(O)CCc1ccc(-c2cccs2)n1NC(=O)c1cccs1 | 20
62 | CCCCOC(=O)C1[C@H]2C(=O)N(Cc3cccs3)C[C@]23C=C[C@H]1O3 (stereo partly drawn) | 0.149
63 | CC1(C)CC2C1CCC1(O)CC2(C)CCC1N(O)c1ccc(C(=O)NCCO)cn1 (stereo not drawn) | 11
64 | Cc1c(C(C)(C)C)s/c(=N/S(=O)(=O)c2ccccc2)n1C | 12.6
65 | O=C(CCCC(=O)OCC(Cl)=C(Cl)Cl)Nc1cccc(F)c1 | 0.376
66 | CN(CCCC(=O)NCc1ccco1)S(=O)(=O)c1ccccc1 | 3.19
67 | CN(CCO)c1nc(N)c2c(N)nc3c(c2c1C#N)CC(=O)N3C1CCCC1 | -2.55
68 | O=C(CSc1nnc(NC(=O)C2CC2)s1)Nc1ccccc1 | 11.4
69 | COC(=O)c1ccc(OCc2nc(N)nc(N3CCOCC3)n2)cc1 | 10.2

Row | Compound | hERG current change (%, negative = inhibition) at 1uM [%]
70 | CN1CCN(NC(=O)/C=C/c2ccc(C(C)(C)C)cc2)CC1 | 7.12
71 | COc1ccc(CCNC(=S)N2CCC(C(N)=O)CC2)cc1 | 9.77
72 | c1nc(N2CCC3(CC2)OCCO3)c2c3c(sc2n1)CCCC3 | 3.39
73 | COc1ccc(CCN/C=C2/CC(=O)NC2=O)cc1OC | 12.8
74 | COc1ccccc1C1/C(=C(/O)c2ccccc2)C(=O)C(=O)N1CCO (stereo not drawn) | 9.58
75 | NS(=O)(=O)c1cccc(NS(=O)(=O)c2ccc(/C=C/C(=O)O)cc2)c1 | 15.9
76 | COCCN(Cc1ccccc1)C(=S)Nc1ccc(Cl)cc1 | 10
77 | C/C(=N\NC(=O)c1nn(C)cc1Br)c1ccc(NC(=O)c2ccncc2)cc1 | 10.6
78 | O=c1cc[nH]c2c(C(F)(F)F)cccc12 | 2.22
79 | CC1(OC(=O)C2CCCC2)C(=O)C=C2C=C(c3ccsc3)N(CC3CC3)C=C2C1=O (stereo not drawn) | 11.4
80 | Cc1ccc(NC(=O)c2c(F)cccc2Cl)cc1NS(C)(=O)=O | 16.8
81 | CCOC(=O)CC1C(=O)NCCN1c1nc2c(C)cccn2c(=O)c1/C=C1\SC(=S)N(C(C)CC)C1=O (stereo not drawn) | 9.18
82 | O=C1c2cccc3cccc(c23)C(=O)N1c1ccccc1Cl | 13.2
83 | COc1ccc(S(=O)(=O)N(C)CC(=O)N2CCN(c3ccccc3)CC2)cc1 | 2.13
84 | COc1ccc(-c2csc(NC(CO)c3nc4ccccc4n3CCCO)n2)cc1 (stereo not drawn) | 6.97
85 | O=C(CCNC(=O)c1ccccc1)OCN1C(=O)c2ccccc2C1=O | 6.06
86 | CCOc1ccc(C2/C(=C(\O)c3ccc4c(c3)OCCO4)C(=O)C(=O)N2CCN2CCOCC2)cc1OC (stereo not drawn) | 10.9
87 | Clc1ccccc1-c1nnc(CNC2CC2)o1 | 14.8
88 | CCOc1cc(/C=C2/C(=O)ON=C2C)ccc1OCc1ccccc1 | 10.4
89 | c1ccc2c(c1)ncn2CCn1cnc2ccccc21 | -25.7
90 | COc1ccc(C(CNC(=O)c2cccc(S(=O)(=O)Nc3ccc(C)cc3)c2)N2CCOCC2)cc1 (stereo not drawn) | 5.85
